# Laboratory results taken from PubChem BioAssay AID1347417 (National Center for Advancing Translational Sciences (NCATS), 2020).
# The campaign covered roughly 120,000 compounds. About 5,300 (4.4%) were called active. This list was built around the results that the source calls inconclusive (neither active nor inactive); the mix of calls is not that of the screen. The call rests on the fitted dose curve; in most records, active means well fitted inhibition curve with a large enough effect; inconclusive means small, poorly fitted or top-dose-only effect; inactive means no such curve, though single readings can be large or run the other way. Potencies beside an inconclusive call are fits to weak or partial responses and may not hold up.
# Assay: qHTS Primary assay for Inhibitors of Plasmodium falciparum Dd2 growth in vitro; further: nearly all actives have a fitted effect of over 65% in size;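 on activity, negative = inhibition: plate controls were DMSO vehicle for no effect and reference drug for full effect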
# Settings: P. falciparum Dd2 growth, SYBR Green, 72 h; activity, negative = inhibition: at 28.9 µM (top of the series) unless noted; series mostly up to 28.9 µM
# Procedure, shortened: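 Infected erythrocytes (Dd2, 0.3% parasitemia, 2.5% hematocrit final) are added to compound in RPMI-1640/Albumax II medium, grown 72 h at 37C in low oxygen, then lysed with saponin/Triton-X containing SYBR Green and read by fluorescence.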
# Potency means the concentration at half of the fitted maximal effect; tags describe the fitted curve by direction and shape.
SMILES,Potency,"activity, negative = inhibition"
CCC1Oc2ccc(NC(=O)COC)cc2CN(Cc2ccc(F)cc2)C1=O (stereo unspecified),"inconclusive: 0.0891 µM [inhibitor, full curve, poor fit]",
N#Cc1cccnc1N1CCC(CO)(Cc2ccccc2C(F)(F)F)CC1,"inconclusive: 8.91 µM [inhibitor, partial curve, poor fit]",
COc1cccc(NC(=O)CCC2CCN(S(=O)(=O)c3ccccc3)CC2)c1,"inconclusive: 8.91 µM [inhibitor, partial curve, poor fit]",
O=S(=O)(c1cccs1)N1CCC(OC2CCN(Cc3ccccc3)CC2)CC1,active: 3.55 µM,
CC(C)N1C(=O)C2(CCCCC2)C1C(=O)N1CCN(c2ccccc2)CC1 (stereo unspecified),inactive,
Brc1csc(CN2CCc3nc(Nc4ccccc4)ncc3C2)c1,active: 10 µM,
Cc1cccc(Cn2c(SCc3ccc(C(=O)N4CCCCCC4)cc3)nc3ccncc32)c1,"inconclusive: 11.2 µM [inhibitor, partial curve, poor fit]",
CN1CCCCC(CC(=O)Nc2ccc3c(c2)OCCO3)C1=O (stereo unspecified),inactive,
Cc1ccc(-c2cn(C3CN(C(=O)C(C)CN4CCOCC4)C3)nn2)cc1 (stereo unspecified),inactive,
CCCN1CCCC2(Cc3ccccc3CN(C(C)=O)C2)C1 (stereo unspecified),"inconclusive: 31.6 µM [inhibitor, single point]",
CCOC(=O)c1c(Oc2ccc(C(=O)OC)cc2)nnc(-c2ccccc2)c1-c1ccccc1,"inconclusive: 15.8 µM [inhibitor, partial curve, poor fit]",
C=C(C)CN(C)C(=O)c1coc(COc2ccc3c(c2)OCO3)n1,inactive,
Cc1nc(C(=O)N2CCC(c3[nH]ncc3-c3ccccc3C)CC2)cs1,inactive,
c1ccc(CNc2ncc(CN3CCC4(CCNCC4)C3)cn2)cc1,"inconclusive: 11.2 µM [inhibitor, partial curve, poor fit]",
COc1cccc(Nc2ccc3c(n2)C(C)(C(=O)NCc2cccs2)CN(C)C3)c1 (stereo unspecified),"inconclusive: 0.562 µM [inhibitor, partial curve, poor fit]",
COc1ccc(NC(=O)Nc2cccn3nc(C)nc23)cc1,"inconclusive: 17.8 µM [inhibitor, single point]",
CN1C(=O)c2cccn2CC1C(=O)N1CC=C(c2ccccc2)CC1 (stereo unspecified),inactive,
Cc1ccccc1CC(=O)N1CCC[C@H]1c1nc(-c2ccccc2Cl)no1,"inconclusive: 7.94 µM [inhibitor, single point]",
COc1ccccc1C(=O)NC1CCN(c2cc(C(F)(F)F)ncn2)CC1,"inconclusive: 11.2 µM [inhibitor, single point]",
COc1ccc(C2Cn3nnc(C(=O)N4CCN(C(=O)c5cc(F)ccc5Cl)CC4)c3CO2)cc1 (stereo unspecified),"inconclusive: 11.2 µM [inhibitor, single point]",
O=C(NCCc1ccccc1)c1ccc(CSc2nc3cccnc3n2Cc2ccc(F)cc2)cc1,active: 8.91 µM,
CCOC(=O)C1CC1CN1CCCC2(Cc3ccccc3CNC2=O)C1 (stereo unspecified),,inconclusive: -63.2% [inhibitor]

SMILES,Potency,"activity, negative = inhibition"
Cn1cnc2cc(-c3ccc(F)cc3)cc(C(=O)NCCc3ccccn3)c21,inactive,
O=C(NCc1ccc(Cl)nc1)c1cnn2c1CN(C(=O)OCc1ccccc1)CC2,"inconclusive: 11.2 µM [inhibitor, partial curve]",
COc1ccccc1CC(=O)N1CCCc2ncc(C(=O)N3CCN(CCO)CC3)cc21,inactive,
O=C(NCc1ccccc1)N1CCCC(Cc2nncn2-c2ccccc2)C1 (stereo unspecified),inactive,
CN1C[C@H](NC(=O)c2ccc3c(c2)OCO3)CCC[C@@H](C(=O)NCc2cc(F)cc(F)c2)CC1=O,inactive,
CC(C)CCN1CCCC2(CNc3ccccc3[S+](=O)([O-])N2)C1 (stereo unspecified),active: 12.6 µM,
O=C(CCc1nc2ccccc2c(=O)[nH]1)NC1CCCc2c1[nH]c1c(Cl)cccc21 (stereo unspecified),"inconclusive: 10 µM [inhibitor, single point]",
COc1ccc(C(=O)N[C@@H]2CCC[C@@H]2C(=O)NCCc2c[nH]c3ccc(OC)cc23)cc1,"inconclusive: 8.91 µM [inhibitor, single point]",
COCC1CN(C(C)=O)CC12CCN(S(=O)(=O)c1cn(C)cn1)CC2 (stereo unspecified),inactive,
O=C(NCc1ccnc2[nH]ccc12)c1ccc(F)cc1,"inconclusive: 31.6 µM [inhibitor, single point]",
O=C(NCc1ccc(F)cc1)C1CCN(C(=O)c2ccc(-n3ccc4ccccc43)s2)CC1,"inconclusive: 17.8 µM [inhibitor, single point]",
Cc1cc(C)n(C2CCN(Cc3cn(-c4ccccc4)nn3)C2)n1 (stereo unspecified),"inconclusive: 11.2 µM [inhibitor, single point]",
Cc1cccc(OCCc2noc(C3CCCCN3C(=O)NC(C)C)n2)c1 (stereo unspecified),"inconclusive: 17.8 µM [inhibitor, single point]",
COCCOc1ncccc1-c1noc([C@@H]2CCCN2Cc2ncc[nH]2)n1,"inconclusive: 31.6 µM [inhibitor, single point]",
COc1ccccc1NC(=O)Cn1nc2c(cc1=O)CCCC2,inactive,
O=C(Nc1cccc(Cl)c1)C1CCN(C(=O)c2ncn3c2COC(c2ccc(F)cc2)C3)CC1 (stereo unspecified),"inconclusive: 4.47 µM [inhibitor, partial curve, poor fit]",
Cc1ccc(CNC(=O)C2CCN(S(=O)(=O)N3CCC(C)CC3)CC2)cc1,inactive,
Cc1ccc(CN2CCN(C(=O)CCC3CCN(C(=O)c4ccccc4)CC3)CC2)cc1,"inconclusive: 20 µM [inhibitor, single point]",
O=C(NCCc1c[nH]c2ccccc12)[C@@H]1C[C@H]2C(=O)NCCCCCCN(C(=O)C3CC3)[C@H]2C1,"inconclusive: 14.1 µM [inhibitor, single point]",
COc1ccc(CNC(=O)Cn2c(SCC(=O)N(C)c3ccccc3)nc3ccccc32)cc1,"inconclusive: 0.0794 µM [inhibitor, full curve]",
CN1C(=O)COC[C@@H]1[C@H](O)c1ccc(NC(=O)CC(C)(C)C)cc1,inactive,
CCCCn1c(=O)n(-c2ccc(Br)cc2F)c(=O)c2c3c(sc21)CN(C(C)=O)CC3,"inconclusive: 11.2 µM [inhibitor, partial curve, poor fit]",

SMILES,Potency,"activity, negative = inhibition"
O=C(c1ccccc1)N1CCC2(CC1)N=C(c1ccc(Br)cc1)NO2,"inconclusive: 7.94 µM [inhibitor, partial curve, poor fit]",
COc1ccc(OC)c(CNC(=O)c2ccc3c(c2)C(O)CCCCCN3C)c1 (stereo unspecified),"inconclusive: 3.55 µM [inhibitor, partial curve, poor fit]",
O=C(Cn1nc2c(cc1=O)CCCCC2)Nc1cccc(N2CCCCS2(=O)=O)c1,inactive,
Cc1ccc(NCc2cccn2-c2nnc(N3CCCCCC3)s2)cc1,"inconclusive: 11.2 µM [inhibitor, single point]",
CCCCNC(=O)C1CCN(S(=O)(=O)c2cc(Br)cc3c2N(C(=O)CC)CC3)CC1,"inconclusive: 11.2 µM [inhibitor, single point]",
COc1ccc(NC(=O)COc2cccc(-c3nnc4n3CCCC4)c2)cc1OC,active: 7.94 µM,
CC(C)=CCC1(CO)CCCN(CC(=O)N2CCCCCC2)C1 (stereo unspecified),"inconclusive: 10 µM [inhibitor, single point]",
O=C(c1ccccc1F)N1CCN(c2cc(-c3ccccc3)[nH]n2)CC1,inactive,
COc1ccc(S(=O)(=O)N(Cc2nc(-c3ccc(C)cc3)no2)C2CCCCC2)cc1,"inconclusive: 10 µM [inhibitor, single point]",
O=C1Cc2c(-c3cccc4ccccc34)n[nH]c2CN1Cc1ccccc1,"inconclusive: 31.6 µM [inhibitor, single point]",
CCS(=O)(=O)Nc1ccc(C2(C(=O)NCC(C)C)CCCCC2)cc1,inactive,
O=C1CC(c2ccccc2)N(C(=O)CNS(=O)(=O)c2cccs2)CCCCCN1 (stereo unspecified),inactive,
Cn1c(CNC(=O)C2CCN(c3cn[nH]c(=O)c3)C2)nc2ccccc21 (stereo unspecified),"inconclusive: 12.6 µM [inhibitor, partial curve, poor fit]",
COc1ccc(C2Cn3nnc(C(=O)NCc4cc(OC)ccc4OC)c3CO2)cc1 (stereo unspecified),"inconclusive: 11.2 µM [inhibitor, single point]",
Cc1ccc(C)n1-c1nnc(N2CCC(C(=O)NCc3ccccc3Cl)CC2)s1,"inconclusive: 15.8 µM [inhibitor, single point]",
Cc1cn2nc(C(=O)Nc3ccc(F)cc3)cc2c(N(C)Cc2ccccc2)n1,"inconclusive: 0.224 µM [inhibitor, full curve, poor fit]",
Cc1c(-c2ccccc2F)[nH]c2ccc(CNC(=O)Cn3ccc(=O)[nH]c3=O)cc12,"inconclusive: 8.91 µM [inhibitor, single point]",
O=C(Nc1ccc(Cl)cc1)c1nc2c(o1)CCN(Cc1cccc(O)c1)CC2,"inconclusive: 2 µM [inhibitor, full curve, poor fit]",
COc1ccccc1-c1[nH]nc2ncc(-c3cnn(C)c3)nc12,"inconclusive: 1.26 µM [inhibitor, full curve, poor fit]",
CC(C)C[C@@H]1N[C@H](C(=O)NC(C)C)Cc2cn(Cc3nccn3C)c3cccc1c23,"inconclusive: 3.16 µM [inhibitor, single point]",
O=C(Cn1c(=O)n(Cc2ccco2)c(=O)c2cccnc21)Nc1ccccc1F,"inconclusive: 10 µM [inhibitor, single point]",
O=C(Nc1ccc2nc(SCC(=O)N3CCCC3)sc2c1)c1ccccc1,inactive,
